Assay results as given in PMC12136788.
The other results are listed elsewhere or left out.

B1: chr12:39756943:39756944:-_ENSG00000139116_ENST00000544797|hu_mus|hu_hu_hu_mus_False|28_88 (ssRNA)
RNA: GGGAGUUCUACAGUCCGACGAUCGGUUUGGCUGUUACCCCCAAGGGAAUCCUGUAGGAGUCUUGUCAGCUUAGAGUCUCUGUAAGGGACAUGGGUGGCUCUCUUGCUCUUGUCUCCCAAGGCGCUGAUUACAUUCCCAAGAGCCAACAGAGGAUUGAGCAUCA
B2: chrX:20428832:20428833:+_ENSMUSG00000001127_ENSMUST00000120356|mus_mus|FALSE|FALSE (ssRNA)
RNA: GGGAGUUCUACAGUCCGACGAUCACAAUGCUGGUGGAACUUGUAGCCACAGGUCUGGCAGCGGAAUCCAUGGAACAGAAACUUAAGGCAGAAGUCACAGAAGGCCAGGCUGAAGAAUGUCUUCCGUACAAAAUUGUGCAUGGUCAACAGAGGAUUGAGCAUCA
B3: 120510811_120512209_1312_CDS_ENSG00000134250_ENST00000256646|human|control|control (ssRNA)
RNA: GGGAGUUCUACAGUCCGACGAUCGCAAGGAUUGCUGAUGCAUGCAUCAUCCAGAUGACACAGGAGACCUGCCUUCCCCUCUGGGCACAUGCAAGAGAAGGAGGCCACACGGUCGAUGCAGGUGGAGCCUGGAGUACAGGAGGCCAACAGAGGAUUGAGCAUCA
B4: chr7:75932113:75932114:+_ENSG00000106211_ENST00000248553|hu_hu|hu_hu_hu_mus_False|18_98 (ssRNA)
RNA: GGGAGUUCUACAGUCCGACGAUCCUGCGACCACUCAUCCGGCAGCCGGGGCACCCCGAAAGCUUGAUCGAAGAGGCGGCUGUGUGCAGGGUACCAGUCCCGGAAUGGUUCCCAGCUGCCCCGCAGGAGCAGCGAGAAGGGCACCAACAGAGGAUUGAGCAUCA
B5: chr14:63888807:63888808:-_ENSG00000154001_ENST00000337537|hu_hu|motif|central (ssRNA)
RNA: GGGAGUUCUACAGUCCGACGAUCUUCAUUGCUGUCACUAGGAGGGAGAGUUCUGAAUAUAUUGCAAGAUACCAUUCGGACGGCUUCAGGGUAAGUCUGCUCUGUCAAACAGCCUCUGCUUAUUGUAAUGUAGUCCACCAGUUCCAACAGAGGAUUGAGCAUCA
B6: chr8:95500983:95500984:-_ENSG00000164944_ENST00000437199|hu_mus|FALSE|FALSE (ssRNA)
RNA: GGGAGUUCUACAGUCCGACGAUCAGAACACAUCUAUCGAGUAAAGGACCGUACAUGACGGCCUCUACCACUGCCUCCACUAACAAACUUUCCUCUCGAGCCUCCACUGCCGCUAUUUGUACUAGCCCAGGACGGUCCCAGGCCCAACAGAGGAUUGAGCAUCA
B7: chr4:148551591:148551592:-_ENSMUSG00000063077_ENSMUST00000060537|mus_hu|mus_mus_mus_hu_False|1_58 (ssRNA)
RNA: GGGAGUUCUACAGUCCGACGAUCACCUGACAAAAUUAAAUAUCCCUGUAAAUUAGACAAUAAGCAGCAGGCAACAAAGUCUAUGCUUUGGAAUAUGUGCCAGGAAAAGUCAUCUUGUUUUUAGAUCUCAAGAGACACAACCAUCAACAGAGGAUUGAGCAUCA
B8: chr2:216981417:216981418:+_ENSG00000079246_ENST00000392132|hu_hu|hu_hu_hu_mus_True|8_68 (ssRNA)
RNA: GGGAGUUCUACAGUCCGACGAUCCUGAUACUGGUCCUUGCCAGCAAGGGCAUUAUCAGUGCCAUCUGUACCAAACAGGACUAACGCAAUCUCAUCUUUGCUCUCCGAAAAUACCUGUCGUUGGACAAACAUGGUUAUCACUUUCAACAGAGGAUUGAGCAUCA
B9: chr14:34206250:34206251:-_ENSMUSG00000021936_ENSMUST00000111945|mus_hu|motif|central (ssRNA)
RNA: GGGAGUUCUACAGUCCGACGAUCUGCAGUCCUGGCCAGACCGAAGUCAAGAAUCUUCAAAGUGCAAUCAGAUUUUACGGCGGUAUUACUGGGCUUUAAGUCCCGAUGAAUAAUUCCAGCAGAAUGAAGGUGCUUGAUUCCACACAACAGAGGAUUGAGCAUCA
B10: 43599961_43601292_1323_3pUTR_ENSG00000189221_ENST00000338702|human|control|control (ssRNA)
RNA: GGGAGUUCUACAGUCCGACGAUCUCCAUAUUGAGUCAUGAUCCCAGGAGGGAAGUAGGCCGUGUAGCAGCCCCCAGAGUACUGCUCCUCACACCAGUUCUUCUCUUCAUAAUGCACUGGAUGUAAAGCUUCUUGGGAUCCCAGCAACAGAGGAUUGAGCAUCA
B11: 64005715_64005835_4327_CDS_ENSG00000103657_ENST00000443617|human|control|control (ssRNA)
RNA: GGGAGUUCUACAGUCCGACGAUCCUCAGGAAGGUCUGUGCUGACCCUUCGCUCUUGCUGAGACUGAGGAGGUGGAUCAUCAGCUCGAGCCCCAGACCCUGCCCCACUGUUCAUUCUAUCUCGGUCUCGGCUACGAGCUACUUCCAACAGAGGAUUGAGCAUCA
B12: chr11:77340908:77340909:-_ENSG00000074201_ENST00000525064|hu_hu|hu_hu_hu_mus_True|38_108 (ssRNA)
RNA: GGGAGUUCUACAGUCCGACGAUCGUUUCGGUCCCUGGACACCGCAUGUAAACUAAUGGUGGGGUAUUCCAGUGAGAAUCCUAAUCCCGAACCAUCUAACCAAGACAGGCGGCUCUCCGCGAUGUAAAGCGUGCCGGUGCCGAGCAACAGAGGAUUGAGCAUCA
B13: 38068702_38068822_3813_3pUTR_ENSMUSG00000021427_ENSMUST00000021864|mouse|control|control (ssRNA)
RNA: GGGAGUUCUACAGUCCGACGAUCCAUACAAGCACACCGCUAACAAGAAAUGAGAACCAGCUGCUCCUCUCUGAACCGAGUAAGGAUUUACUUAGGAAACACAGGCCAAGUUCACGGACUCGUUACAUGGCUGCCGAUGCUACCCAACAGAGGAUUGAGCAUCA
B14: chr10:33214929:33214930:-_ENSG00000150093_ENST00000302278|hu_hu|hu_hu_hu_mus_True|88_108 (ssRNA)
RNA: GGGAGUUCUACAGUCCGACGAUCAACAAGUUCAUUAAAAAACUCUCCUUUAUUAGUAAGACUAAGCACAUUUUUGUAGCUAAAUGGGCUGGUGCAGUUUUGUUCACUUGUACAAGGAUUUCUUAGCUUUGCUGGGGUUGUGCUCAACAGAGGAUUGAGCAUCA
B15: chr15:23003119:23003120:+_ENSG00000068793_ENST00000560848|hu_mus|motif|central (ssRNA)
RNA: GGGAGUUCUACAGUCCGACGAUCUUAUAAAGUUAAGCUUUCAGAUCAAAAGUAGGUUCAGACAUAAUGGAAAAUAGCCCCGGAAAAUUUCAAUAUAGUUUACAUAAAGACAAACAUGCCAUCAGUUACUGGGAUGCUGUGAGCCAACAGAGGAUUGAGCAUCA
B16: chr1:145439819:145439820:+_ENSG00000117289_ENST00000369317|hu_hu|FALSE|FALSE (ssRNA)
RNA: GGGAGUUCUACAGUCCGACGAUCUUUCUUUGUCUCUUGAGUUGGCUGGCUCGGGCGGUCAAGAAAAGCCUUCACCCAGUAGUCUACACACCCAUAUUUUCCUUUGAAGGAUGUUCCCAGAGGCCCCUGAGGAAGCUCAAAGCCCAACAGAGGAUUGAGCAUCA
B17: chr1:150192712:150192713:-_ENSG00000143401_ENST00000314136|hu_mus|FALSE|FALSE (ssRNA)
RNA: GGGAGUUCUACAGUCCGACGAUCGCACCAAACUACACCUGUGUAAAAGCAACAAUGUUUUAAUUAUGGGCUAAAAAUGUCUAAUACAUUAAGCAUGAAUUAUAAAAAUCCAGAAUCUAAAUACAGUGCUAGAGAAUUUCACUACAACAGAGGAUUGAGCAUCA
B18: chr15:31385891:31385892:-_ENSMUSG00000039100_ENSMUST00000090227|mus_mus|motif|central (ssRNA)
RNA: GGGAGUUCUACAGUCCGACGAUCAUUCACUCCUAAACAGACACCCCUAGGCCUUAGUCACUCAUUUCCAUCUAAGGUUCGGUAGGAUUGUCAUGAUUACAAAAUGAGGCACUCAGACAGAUAGACAGGAAUGGAGACAUACAUCAACAGAGGAUUGAGCAUCA
B19: chr3:95733387:95733388:+_ENSMUSG00000015749_ENSMUST00000165307|mus_mus|FALSE|FALSE (ssRNA)
RNA: GGGAGUUCUACAGUCCGACGAUCCACACGGGUGUGGGAGAGAAAGAAAAGAAUAGCAAAUGGAGUCCGACGACUUGGGACUAACUCGGCUGCCCCCACCUCCGAGUCCACACACCCGCGCGCGCACACUCGGGCACGCACACACAACAGAGGAUUGAGCAUCA
B20: chr7:7679991:7679992:-_ENSG00000106399_ENST00000396682|hu_hu|hu_hu_hu_mus_False|48_68 (ssRNA)
RNA: GGGAGUUCUACAGUCCGACGAUCUGGGAUGAAUCUUUUCCAGCUUCCCCACGAAGCACACGGGCCGGUCGAUGAAUUGUGGUAACAUGCCGGCGUUGACGCGCGCUUUGGGGAGCUGCAUUAUGUCCUCCAUGAUUCUGCCGCCAACAGAGGAUUGAGCAUCA
B21: chr3:9412954:9412955:+_ENSG00000134077_ENST00000452837|hu_mus|hu_hu_hu_mus_False|8_48 (ssRNA)
RNA: GGGAGUUCUACAGUCCGACGAUCGGUUGAUAUCUCUUCUUUGAUGGCUGGAUUUUCAUAAUAGUCCAAGAUAUGUGAAUCUGAAGUAUGGCUAGUGUGCUUUUUCUUACCAUCUUUCUCAUCUGCUUUGACUUCUUGUCCACACAACAGAGGAUUGAGCAUCA
B22: chr7:54825262:54825263:-_ENSG00000132432_ENST00000352861|hu_hu|hu_hu_hu_mus_False|38_78 (ssRNA)
RNA: GGGAGUUCUACAGUCCGACGAUCCUGCCGGCUGGGCUCCACAAACUGCAUUACCUGCAUGACUGCCGUUGGAUGGCGGAUUGAGAGCGUAGAGACAACGUAGCACUGAGAGAACCGAGCCCAACGGAACCGGAAGCUGGCAACCAACAGAGGAUUGAGCAUCA

What follows are binders tested against T1, UNK ZnF1-3 (human, UniProt Q9C0B0 31-174) (assay: nsRBNS (natural sequence RNA bind-n-seq); RBNS binding buffer (assumed for nsRBNS): 25 mM Tris pH 7.5, 150 mM KCl, 3 mM MgCl2, 0.01% Triton X-100, 500 ug/ml BSA, 20 U/ml SUPERase-In, 4 C; UNK is unkempt and MSI1 is Musashi-1; names of the RNAs are library labels; protein concentration not given here; high values mean tight binding).
T1 sequence: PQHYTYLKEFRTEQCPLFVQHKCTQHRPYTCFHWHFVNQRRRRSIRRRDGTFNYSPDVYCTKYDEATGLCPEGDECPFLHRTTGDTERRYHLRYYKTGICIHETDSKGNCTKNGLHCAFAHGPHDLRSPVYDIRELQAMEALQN

For B1, which binding signal is on record?
Its binding signal is 0.872 enrichment R.

How did the binding signal turn out when B2 was run?
The binding signal was 1.28 enrichment R.

Which binding signal does the source give for B3 here?
The binding signal was 1.56 enrichment R.

With B4 as the binder, how does the binding signal read?
The binding signal was 0.936 enrichment R.

With B5 as the binder, how does the binding signal read?
The binding signal was 0.955 enrichment R.

How did the binding signal turn out when B6 was run?
The binding signal was 0.997 enrichment R.

For B7, which binding signal is on record?
Its binding signal is 1.35 enrichment R.

B8 was tested. Which binding signal did it give?
Its binding signal is 0.588 enrichment R.

With B9 as the binder, how does the binding signal read?
The binding signal was 0.672 enrichment R.

With B10 as the binder, how does the binding signal read?
Its binding signal is 0.478 enrichment R.

B11 was tested. Which binding signal did it give?
The binding signal was 0.537 enrichment R.

With B12 as the binder, how does the binding signal read?
The binding signal was 0.673 enrichment R.

How did the binding signal turn out when B13 was run?
The binding signal was 1.22 enrichment R.

How did the binding signal turn out when B14 was run?
The binding signal was 0.793 enrichment R.

Which binding signal does the source give for B15 here?
Its binding signal is 2.28 enrichment R.

Which binding signal does the source give for B16 here?
Its binding signal is 0.97 enrichment R.

B17 was tested. Which binding signal did it give?
Its binding signal is 1.53 enrichment R.

B18 was tested. Which binding signal did it give?
Its binding signal is 1.25 enrichment R.

Which binding signal does the source give for B19 here?
The binding signal was 1.18 enrichment R.

How did the binding signal turn out when B20 was run?
The binding signal was 0.426 enrichment R.

Which binding signal does the source give for B21 here?
Its binding signal is 0.238 enrichment R.

B22 was tested. Which binding signal did it give?
The binding signal was 1.48 enrichment R.
